Several values for one entry are separate records, joined by “and”; a condition that tells them apart may be missing. Identical values can stand only once. Hit rate of the full screen: of about 110,000 compounds, about 40 (0.04%) were called active. Inconclusive means that the source gave no clear call. Such entries were picked first, then a sample of the others. Calls follow the shape of the dose curve; as a rule, active = well fitted curve in the direction sought with a large enough effect in the signal ratio (not every such curve was filed as active); inconclusive = small, poorly fitted or top-dose-only effect, or a change in a side signal; inactive = flat fitted curve, though single readings scatter; the % refers to the signal ratio. Potencies of inconclusive entries are doubtful fits and often do not repeat.
Test: IkB Signaling;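 as to IkBa stabilization activation: 0% = basal untreated cells and 100% = reference inhibitor full response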
Conditions: ABC-DLBCL IkBa-CBG/CBR dual luciferase ratio (green luciferase fused to IkBa over red control in OCI-Ly3 lymphoma cells), 4 h; IkBa stabilization activation: at 57.1 µM (top of the series), scaled: untreated 0%, proteasome inhibitor 100% unless noted
How it was run: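 Luminescence ratio of IκBα-fused green versus native red beetle luciferase in OCI-Ly3 cells, 4 h post-doxycycline with compound; red signal alone, scaled from basal (0%) to zero light (-100%), flagged nonspecific or cytotoxic effects.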
Potency is read from the fitted curve at half-maximal effect.

Compound	IkBa stabilization activation	Potency
O=C(Nc1cccc(-c2nc3ccccc3o2)c1)c1cccc(Br)c1	inconclusive: -0.0954% [signal inhibitor]	–
Cn1c(=O)n(Cc2ccc(F)cc2)c(=O)c2c1nc1n2CCCN1C1CCCCC1	inactive	–
C=CCN1C(c2ccc(OCC)cc2)=CS/C1=C(\C#N)c1nnc2n1CCCCC2	inconclusive: 6.72% [signal inhibitor]	–
COc1ccccc1OCc1nnc(SCC(=O)c2cc(Cl)ccc2OC)o1	inconclusive: 1.69% [signal inhibitor]	–
CC(C)n1c(C(=O)OCC(=O)NCc2ccc3c(c2)OCO3)cc2occc21	inconclusive: 5.91% [signal inhibitor]	–
CCOC(=O)c1c(Nc2cc(C)cc(C)c2)nnc(-c2ccccc2)c1-c1ccccc1	inconclusive: 4.03% [signal inhibitor]	–
Cc1cc(NC(=O)Cn2nnc3sc4c(c3c2=O)CCC(C(C)(C)C)C4)no1 (centres undefined)	inconclusive: 4.78% [signal inhibitor]	–
CCOC(=O)c1[nH]c(=O)c2ccccc2c1O	inactive	–
CC1CCN(S(=O)(=O)c2ccc3nc(Nc4ccc(C#N)cc4)ccc3c2)CC1	inconclusive: 9.81% [signal inhibitor]	–
O=C(O)c1cc([N+](=O)[O-])ccc1NCCCc1ccccc1	–	inconclusive: 3.98 µM [signal inhibitor, full curve] and inconclusive: 7.94 µM [signal inhibitor, partial curve]
O=C(NCC(c1cccnc1)N1CCc2ccccc2C1)C(=O)Nc1ccccc1 (centres undefined)	inconclusive: 0.322% [signal inhibitor]	–
COc1ccccc1CNS(=O)(=O)c1ccc(F)c(C(=O)Nc2cc(Cl)ccc2OC)c1	inconclusive: 1.8% [signal inhibitor]	–
COC(=O)c1ccc(CSc2nc3c(cnn3-c3ccc(F)cc3)c(=O)[nH]2)o1	inactive	–
Fc1ccc(Cc2cn3cc(-c4ccc(Cl)cc4)nc3s2)cc1	inactive	–
CCC1CCCCN1CCCNC(=O)c1cc2c(=O)n(CC)c3ccccc3c2s1 (centres undefined)	inactive	–
COc1ccc(NC(=O)C2CCCN(S(=O)(=O)c3cccs3)C2)cc1 (centres undefined)	inconclusive: 2.21% [signal inhibitor]	–
CCN1CCN(C(c2ccccc2)c2c(O)cc(C)n(Cc3ccco3)c2=O)CC1 (centres undefined)	inconclusive: 1.38% [signal inhibitor]	–
N#C/C(=C/c1ccc(Cl)cc1Cl)c1nc2ccccc2c(=O)[nH]1	inconclusive: 15.9% [signal inhibitor]	–
COC(=O)c1c(N)n(-c2ccc(OC)c(Cl)c2)c2nc3ccccc3nc12	inactive	–
O=C(Nc1ccccc1F)c1ccc(-c2ccccc2)s1	–	inconclusive: 25.1 µM [signal inhibitor, partial curve]
CCN(CC)C(=O)c1sc2c(c1C)c(=O)n(-c1ccc(Cl)c(Cl)c1)c(=O)n2CC(=O)Nc1cccc(OC)c1	inconclusive: 3.51% [signal inhibitor]	–
CCOC(=O)c1nnn(CC(=O)NC(=O)Nc2cccc(CC)c2)c1C(=O)OCC	inconclusive: 13.8% [signal inhibitor]	–
CSc1nsc(SCC(=O)N2CCCc3ccccc32)n1	inconclusive: 2.51% [signal inhibitor]	–

Compound	IkBa stabilization activation	Potency
COc1ccc(NC(=O)CSc2nnc(-c3ccoc3C)n2CCc2ccccc2)cc1	inconclusive: 2.09% [signal inhibitor]	–
Cc1nc2ccc(F)cc2cc1C(=O)NCC1CCCO1 (centres undefined)	–	inconclusive: 7.94 µM [signal inhibitor, partial curve]
O=C(O)CC[C@]1(C(=O)O)CCC(=O)c2ccccc21	inactive: -1.08% [at 11.4 µM, scaled: untreated 0%, proteasome inhibitor 100%]	–
CCCCCNC(=O)c1ccc2c(c1)nc(C)n2-c1cccc(C)c1	inactive	–
O=C(CCn1c(=O)c2cccn2c2ccccc21)Nc1ccc(F)cc1	inconclusive: 0.198% [signal inhibitor]	–
Cc1cc(C)n(-c2nnc(Nc3cc(Cl)ccc3C)c3ccccc23)n1	inconclusive: 2.32% [signal inhibitor]	–
Cc1nc(-c2ccc(C)c(S(=O)(=O)N3CCC(C(=O)Nc4ccc(Cl)cc4)CC3)c2)no1	inconclusive: 6.96% [signal inhibitor]	–
CCCCCN=c1ccn(Cc2ccccc2)c2ccccc12	inconclusive: 2.67% [signal inhibitor]	–
COc1cc2c(cc1OC)[C@@H]1C(=O)c3ccc4c(c3O[C@@H]1CO2)C=CC(C)(C)O4	inconclusive: 0.156% [signal inhibitor]	–
COc1ccc(NC(=O)c2sc3nc4c(cc3c2N)CCCCCC4)cc1OC	inactive	–
Cc1ccccc1NC(=O)c1ccc(F)c(S(=O)(=O)N(C)C2CCCCC2)c1	inconclusive: -0.48% [signal inhibitor]	–
Fc1cc(F)c2ncc3c(-c4ccccc4)nn(-c4cccc(Cl)c4)c3c2c1	inactive	–
Cc1ccccc1NC(=O)C1CCN(C(=O)c2cnn(-c3ccccc3)c2-n2cccc2)CC1	inconclusive: 3.09% [signal inhibitor]	–
Cc1cccc(-c2nc3nc(C)cc(NCc4ccccc4Cl)n3n2)c1	inconclusive: 5.41% [signal inhibitor]	–
CC1CCN(c2oc(-c3ccc(COc4ccccc4)o3)nc2C#N)CC1	inactive	–
CCc1ccc(-n2c(N3CCN(c4cccc(Cl)c4)CC3)nc3ccccc3c2=O)cc1	inconclusive: 0.678% [signal inhibitor]	–
Cc1ccc(NC(=O)N(Cc2cc3cc(C)cc(C)c3[nH]c2=O)CC2COCCO2)cc1 (centres undefined)	inconclusive: 1.77% [signal inhibitor]	–
CC(=O)NCCSC(=O)c1ccc(F)cc1	inactive	–
Cc1ccc(-n2c(SCC(=O)NCc3ccccc3)nc3n[nH]c(C)c3c2=N)cc1Cl	inactive	–
Cn1c(O)c(C=NCCCCCC(=O)O)c(=O)n(C)c1=O	–	inconclusive: 31.6 µM [signal inhibitor, partial curve]
O=C(NCC(c1cccs1)S(=O)(=O)c1cccs1)c1ccc(Cl)cc1 (centres undefined)	inconclusive: -1.65% [signal inhibitor]	–
Nc1nnc(SCC(=O)Nc2ccccc2)s1	inconclusive: 10.2% [signal inhibitor]	–
COc1cccc(NC(=O)Cn2c(=O)n(CC(=O)NCc3ccc(C)cc3)c(=O)c3sccc32)c1	inactive	–

Compound	IkBa stabilization activation	Potency
c1csc(Cn2c(-c3cccs3)nc3ccccc32)c1	inconclusive: 2.05% [signal inhibitor]	–
Cc1ccc2nc(-c3c[nH]c4ccccc34)c(Nc3ccccc3C)n2c1	–	inconclusive: 12.6 µM [signal inhibitor, partial curve, poor fit]
Cc1ccc(C(c2ccccc2)c2c(C)[nH]c3ccccc23)s1 (centres undefined)	inactive	–
CCN1CCN(C(=O)Cn2ncc3c4ccccc4n(Cc4ccccc4)c3c2=O)CC1	inconclusive: 0.00498% [signal inhibitor]	–
Cc1cc(C)c(Cn2c3ccccc3c3cnn(CC(=O)NCc4ccccn4)c(=O)c32)c(C)c1	–	inconclusive: 39.8 µM [signal activator, single point]
CCOC(=O)Cc1csc(NC(=O)c2ccc(S(=O)(=O)N3CCCC3)cc2)n1	inconclusive: 7.63% [signal inhibitor]	–
O=C(CCS(=O)(=O)c1ccc(Br)cc1)Nc1ccc(Cl)c(C(F)(F)F)c1	inconclusive: 1.02% [signal inhibitor]	–
COc1ccccc1CCNC(=O)C(=O)NCC(c1cccs1)S(=O)(=O)c1ccccc1 (centres undefined)	inconclusive: 2.56% [signal inhibitor]	–
CCCCN(C)CCCNC(=O)Cn1ncc2c3ccccc3n(Cc3ccccc3F)c2c1=O	inactive	–
CCc1ccc(-c2nc(-c3ccncc3)no2)cc1	inconclusive: 7.44% [signal inhibitor]	–
COc1cc(NC(=O)C2CCN(S(=O)(=O)c3ccc4c(c3)oc(=O)n4C)CC2)cc(OC)c1	inconclusive: 0.528% [signal inhibitor]	–
CCOc1ccc(CN2C(=O)c3ccccc3Sc3ccc(C(=O)NC)cc32)cc1	inconclusive: 0.771% [signal inhibitor]	–
CN(C)c1nc(N)c(C(=O)N=C(N)N)nc1Cl	inactive	–
Cc1nn(-c2ccccc2)c2sc(C(=O)OCN3C(=O)c4ccccc4C3=O)cc12	inactive	–
CC(C)c1cnc2c(c1SCc1cccc(F)c1)c(=O)n(C)c(=O)n2C	inconclusive: 0.351% [signal inhibitor]	–
CC(=O)N1CCc2cc(Br)cc(S(=O)(=O)N3CCC(C)CC3)c21	inconclusive: 2.61% [signal inhibitor]	–
Cc1ccccc1Nc1nc(N)nc(CN(C)c2ccccc2)n1	inconclusive: 0.518% [signal inhibitor]	–
Cc1ccccc1-c1nc(CS(=O)(=O)CC(=O)Nc2cc(F)ccc2F)c(C)o1	inconclusive: 7.31% [signal inhibitor]	–
Cc1nc2nc(NC(=O)C(C)(C)C)[nH]n2c(=O)c1Cc1ccccc1	inactive	–
CN(C)Cc1ccccc1-c1nc(NCc2cccs2)c2ccccc2n1	inactive: -6.1% [at 11.4 µM, scaled: untreated 0%, proteasome inhibitor 100%]	–
Fc1cccc(-c2cc3nc4c(c(N5CCOCC5)n3n2)CCCC4)c1	inactive	–
CCN(CC)C(=O)CSc1nc2cc3c(cc2c(=O)n1CCCCCC(=O)NCCc1ccc(OC)c(OC)c1)OCO3	inactive	–
COc1ccc(CNC(=O)c2ccc3c(c2)N(Cc2ccccc2F)C(=O)c2ccccc2S3(=O)=O)cc1	inconclusive: 1.63% [signal inhibitor]	–

Source: PubChem BioAssay AID445 (National Center for Advancing Translational Sciences (NCATS), 2006)
